Data taken from paper PMC3001443.
No constants are given. Whether binding was seen depends on the method and setting. For part of these data: In cells and extracts the contact can be indirect. Some entries that bind do so weakly or less than the wild type. Sequences can lack the tags named with a protein.

Protein sequences, listed by entry. Tags and fused reporters are not part of them. Lines headed by an entry give the natural chain unless they say otherwise; changes in a name come on top.
UniProt O45495: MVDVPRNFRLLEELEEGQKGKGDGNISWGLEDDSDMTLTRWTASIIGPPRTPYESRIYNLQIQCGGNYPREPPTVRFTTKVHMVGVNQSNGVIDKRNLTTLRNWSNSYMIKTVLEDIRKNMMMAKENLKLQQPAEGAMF

T1: GST::UBC-13 (C. elegans) (UniProt Q95XX0)
T1 sequence: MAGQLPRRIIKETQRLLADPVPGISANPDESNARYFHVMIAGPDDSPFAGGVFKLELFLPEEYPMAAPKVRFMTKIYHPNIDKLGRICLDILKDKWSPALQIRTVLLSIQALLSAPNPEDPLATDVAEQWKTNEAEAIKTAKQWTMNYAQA

T2: UBC-13 (yeast two-hybrid fusion) (C. elegans) (UniProt Q95XX0)
T2 sequence: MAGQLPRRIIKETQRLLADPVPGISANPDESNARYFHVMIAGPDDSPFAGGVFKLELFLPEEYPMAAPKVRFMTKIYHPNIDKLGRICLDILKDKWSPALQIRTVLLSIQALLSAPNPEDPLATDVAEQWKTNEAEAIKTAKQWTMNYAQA


Assays:
GST::UBC-13 (C. elegans) = biological target: T1, GST::UBC-13 (C. elegans); assay: pull-down; GST::UBC-13 (12 micrograms) bound to glutathione agarose beads; 400 microliters of solubilized COS7 lysate in TEEN (20 mM Tris, 1 mM EDTA, 1 mM EGTA, 100 mM NaCl) with 1% Triton X-100; 45-60 minutes at 4°C; washed in TEEN plus 0.2% Triton X-100; Western blot with anti-GFP antibodies; only the target purified
[1] = biological target: T2, UBC-13 (yeast two-hybrid fusion) (C. elegans); assay: two-hybrid; pEG202 bait vector and pJG4-5 prey vector with reporter plasmid pSH18-34 in yeast strain EGY48; growth of serial dilutions on -Leu -His -Trp dropout plates; both orientations tested
[2] = biological target: UEV-1 (yeast two-hybrid fusion) (C. elegans) (UniProt O45495); assay: as above
[3] = biological target: UEV-1 with the F8A mutation (yeast two-hybrid fusion) (C. elegans) (UniProt O45495); assay: as above

| binding (GST::UBC-13 (C. elegans)) | binding [1] | Molecule | other results |
| --- | --- | --- | --- |
| binds | – | GFP::UEV-1 (from UniProt O45495 1-139) | – |
| no binding | – | GFP::UEV-1(F8A) (from UniProt O45495 1-139) | – |
| – | binds | UEV-1 (yeast two-hybrid fusion) (from UniProt O45495 1-139) | – |
| – | no binding | UEV-1 with the F8A mutation (yeast two-hybrid fusion) (from UniProt O45495 1-139) | – |
| – | – | UBC-13 (yeast two-hybrid fusion) (enzyme, UniProt Q95XX0 1-151) MAGQLPRRIIKETQRLLADPVPGISANPDESNARYFHVMIAGPDDSPFAGGVFKLELFLPEEYPMAAPKVRFMTKIYHPNIDKLGRICLDILKDKWSPALQIRTVLLSIQALLSAPNPEDPLATDVAEQWKTNEAEAIKTAKQWTMNYAQA | binding [2]: binds; binding [3]: no binding |
